According to the supplement of paper PMC6531468:
The list shows a part of the results. These are enrichments in a pooled selection; single values are uncertain. Each score is taken over the longer molecules that contain the sequence shown.

Assays:
Assay in all cases: 6-mer SELEX enrichment z-score vs GST control; IMP3 is the RNA-binding protein IGF2BP3; higher = more enriched by binding
[1] = system: IMP3 KH1-4; conditions: construct: KH1-4 (164-579); SELEX round: R4
Procedure: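 SELEX-seq with GST-tagged IMP3 KH1-4 (Pro164-Lys579) and an N40 RNA pool, round 4. 6-mer z-score of sequence-tag enrichment normalised to the corresponding GST SELEX round; RNA k-mers written as DNA (T for U).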

[2] = system: IMP3 RRM1-2; conditions: construct: RRM1-2 (1-163); SELEX round: R2
Sequence of IMP3 RRM1-2 (chain, as listed by the source): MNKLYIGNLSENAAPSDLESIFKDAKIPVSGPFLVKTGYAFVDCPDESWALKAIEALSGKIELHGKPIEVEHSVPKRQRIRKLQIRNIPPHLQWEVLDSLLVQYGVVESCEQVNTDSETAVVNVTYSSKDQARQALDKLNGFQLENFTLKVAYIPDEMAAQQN
Procedure: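 SELEX-seq with GST-tagged IMP3 RRM1-2 (Met1-Asn163) and an N40 RNA pool, round 2. 6-mer enrichment z-score normalised to GST SELEX. RNA written as DNA (T = U).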

[3] = biological target: IMP3 full-length (UniProt O00425); conditions: construct: FL IMP3 (1-579); SELEX round: R4
Sequence of UniProt O00425 (O00425 whole entry): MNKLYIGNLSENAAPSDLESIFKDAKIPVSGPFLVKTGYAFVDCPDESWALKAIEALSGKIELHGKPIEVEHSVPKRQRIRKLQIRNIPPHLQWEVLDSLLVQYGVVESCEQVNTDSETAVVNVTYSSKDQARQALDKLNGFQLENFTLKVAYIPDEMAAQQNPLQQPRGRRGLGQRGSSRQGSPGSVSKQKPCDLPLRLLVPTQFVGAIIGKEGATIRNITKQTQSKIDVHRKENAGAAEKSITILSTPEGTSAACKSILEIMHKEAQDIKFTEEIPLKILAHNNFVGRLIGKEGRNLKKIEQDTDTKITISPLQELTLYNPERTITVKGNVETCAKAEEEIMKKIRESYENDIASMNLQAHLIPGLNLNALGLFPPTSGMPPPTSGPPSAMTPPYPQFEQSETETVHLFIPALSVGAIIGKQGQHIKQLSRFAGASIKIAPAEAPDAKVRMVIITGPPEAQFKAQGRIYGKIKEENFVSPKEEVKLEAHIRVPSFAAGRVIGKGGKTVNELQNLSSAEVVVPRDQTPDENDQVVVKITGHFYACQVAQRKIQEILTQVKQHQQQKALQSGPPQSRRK
Procedure: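 SELEX-seq with GST-tagged full-length IMP3 and an N40 RNA pool, round 4. Each 6-mer is scored as an enrichment z-score of sequence tags containing it, normalised to the matching GST SELEX round. RNA written as DNA (T = U).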

[4] = system: IMP3 KH1-2; conditions: construct: KH1-2 (164-376); SELEX round: R4
Sequence of IMP3 KH1-2 (chain, as listed by the source): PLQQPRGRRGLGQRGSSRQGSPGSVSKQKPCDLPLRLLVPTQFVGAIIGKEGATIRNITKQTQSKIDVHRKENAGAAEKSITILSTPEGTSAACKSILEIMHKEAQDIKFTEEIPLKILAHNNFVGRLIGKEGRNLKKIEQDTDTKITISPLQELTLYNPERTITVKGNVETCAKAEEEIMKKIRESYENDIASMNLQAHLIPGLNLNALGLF
Procedure: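 SELEX-seq with GST-tagged IMP3 KH1-2 (Pro164-Phe376) and an N40 RNA pool, round 4 (stringent 300/600 mM KCl washes). 6-mer z-score of sequence-tag enrichment normalised to the corresponding GST SELEX round; RNA k-mers written as DNA (T for U).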

[5] = system: IMP3 KH3-4; conditions: construct: KH3-4 (377-579); SELEX round: R4
Sequence of IMP3 KH3-4 (chain, as listed by the source): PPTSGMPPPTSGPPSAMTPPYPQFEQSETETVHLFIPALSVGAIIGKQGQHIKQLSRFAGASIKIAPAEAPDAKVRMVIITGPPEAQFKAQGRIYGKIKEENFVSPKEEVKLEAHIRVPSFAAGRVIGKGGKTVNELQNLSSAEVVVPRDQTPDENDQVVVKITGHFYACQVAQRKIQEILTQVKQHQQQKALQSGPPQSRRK
Procedure: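 SELEX-seq with GST-tagged IMP3 KH3-4 (Pro377-Lys579) and an N40 RNA pool, round 4. 6-mer z-score of sequence-tag enrichment normalised to the corresponding GST SELEX round; RNA k-mers written as DNA (T for U).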

Sequence of IMP3 KH1-4 (chain, as listed by the source): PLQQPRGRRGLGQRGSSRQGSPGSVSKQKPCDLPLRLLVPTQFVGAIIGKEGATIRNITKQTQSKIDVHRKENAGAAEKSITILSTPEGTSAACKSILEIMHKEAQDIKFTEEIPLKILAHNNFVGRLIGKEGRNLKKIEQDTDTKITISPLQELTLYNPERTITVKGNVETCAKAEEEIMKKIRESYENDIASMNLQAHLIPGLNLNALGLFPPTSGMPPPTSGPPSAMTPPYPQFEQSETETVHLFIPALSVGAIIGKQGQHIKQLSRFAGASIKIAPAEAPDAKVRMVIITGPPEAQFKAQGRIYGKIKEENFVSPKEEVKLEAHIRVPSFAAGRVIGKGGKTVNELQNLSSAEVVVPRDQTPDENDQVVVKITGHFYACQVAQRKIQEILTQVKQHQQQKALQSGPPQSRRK

Sequence | 6-mer SELEX enrichment z-score [1] | 6-mer SELEX enrichment z-score [2] | 6-mer SELEX enrichment z-score [3] | 6-mer SELEX enrichment z-score [4] | 6-mer SELEX enrichment z-score [5]
GCTGAA | -0.625 | -0.576 | -0.575 | -0.543 | -0.506
AGAATG | 0.945 | -1.04 | -0.372 | 0.546 | 1.31
GCCGTA | -0.748 | -0.381 | -0.188 | -0.615 | -0.592
AACCCA | -3.05 | -1.3 | -2.72 | -2.95 | -3.65
TCATTC | 1.34 | 1.94 | 1.77 | 1.32 | 0.923
TTGAGA | -0.617 | -0.357 | -0.65 | -0.602 | -0.192
TGTACC | -0.663 | -0.074 | -0.289 | -0.717 | -0.949
CTAGGA | -0.163 | -0.135 | -0.303 | -0.228 | -0.136
GCTGAT | -0.056 | 0.041 | -0.15 | -0.04 | 0.033
ACCCAC | -2.24 | -0.459 | -1.73 | -2.08 | -2.96
ACAAAA | -0.626 | -0.75 | -1.44 | 0.065 | 0.307
CTCGCG | -1.38 | 0.186 | -0.143 | -0.911 | -1.17
GGATAC | 0.078 | -0.214 | -0.049 | -0.016 | 0.091
GAAACT | -0.475 | -1.3 | -1.15 | -0.408 | -0.164
AAATGT | 0.197 | -0.994 | -1.11 | -0.183 | 0.621
TATGCG | 0.061 | 0.022 | -0.217 | -0.045 | 0.316
CAAGTG | -0.333 | -0.083 | -0.042 | -0.445 | -0.315
AATAGC | 0.176 | -0.404 | -0.266 | 0.204 | 0.425
GATATC | -0.153 | -0.02 | -0.165 | -0.167 | -0.113
GCTCTC | -0.254 | 0.479 | 0.285 | -0.116 | -0.21
